Assay results taken from PubChem BioAssay AID1508623 (National Center for Advancing Translational Sciences (NCATS), 2021).
In all, about 48,000 compounds went through this assay and about 450 (0.94%) were called active. Roughly 19% stayed inconclusive and do not appear here. The call rests on the fitted dose curve; in most records, active means well fitted inhibition curve with a large enough effect; inconclusive means small, poorly fitted or top-dose-only effect; inactive means no such curve, though single readings can be large or run the other way. The list shows a part of the results.

Assay: Primary qHTS for Identification of Small Molecule Inhibitors of Huntingtin Promoter Activity; further: nearly all actives have a fitted effect of over 50% in size
Conditions: HEK293 HTT promoter firefly luciferase reporter (activity 0% = vehicle and -100% = no light), 24 h; series mostly up to 57.5 µM; activity change, negative = inhibition: at the top concentration
Summary of the method: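 Quantitative HTS used concentration series of up to 57.5 uM final on HEK293 luciferase reporter cells, 24 h at 37 degrees C. Readout was Dual-Glo firefly luminescence.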

Activity change, negative = inhibition, inactive:
CCN(CC)S(=O)(=O)c1ccc2c(c1)c(=O)c(C(=O)NCCc1ccc(OC)c(OC)c1)cn2C 5.34%
COC(=O)CNC(c1ccccc1)c1cc(Br)ccc1NC(=O)c1ccc(Cl)cc1 (configuration not stated) -26.1%
Cc1nc2ccn(Cc3ccccc3)c(=O)c2cc1C(=O)Nc1ccc(F)cc1Cl -7.61%
CCC(=O)N1CCc2cc(Br)cc(S(=O)(=O)NCc3cccc(OC)c3)c21 1.71%
Cc1ccc(C)c(NC(=O)CCc2nc3cccnc3n2Cc2cccs2)c1 -20.5%
CCN(CC)C(=O)CSc1nc(-c2ccccc2)cc(-c2ccc(OC)cc2)c1C#N -2.68%
COc1cccc(NC(=O)Cn2c(=O)n(-c3ccccc3)c(=O)c3c4c(sc32)CCCC4)c1 -13.6%
Cc1cc2nc(NC(=O)c3ccc(S(=O)(=O)N4CCOCC4)cc3)sc2cc1C 2.54%
COc1ccccc1-c1noc(-c2ccc(NCc3ccccc3)c([N+](=O)[O-])c2)n1 -7.56%
CCOc1ccc(NC(=O)Nc2cccc(C)n2)cc1 49.4%
COCCCN1CN=C(NS(=O)(=O)c2ccc(NC(C)=O)cc2)NC1 -10.9%
CCOC(=O)c1sc2ccccc2c1S(=O)(=O)N1CCN(c2ccccc2F)CC1 -13.7%
CCC(=O)N1CCc2cc(S(=O)(=O)N3CCN(c4ccccc4F)CC3)ccc21 2.11%
COc1cc(OC)c(NC(=O)Cn2nc(C)n3cccc3c2=O)cc1Cl 14.2%
COc1ccc(C)cc1NC(=O)CN1C(=O)CSc2ccc(S(=O)(=O)N3CCCC3)cc21 -9.71%
CC1=C(c2cccc(Cl)c2)S(=O)(=O)NC1=NCc1ccccc1C -19.8%
COc1ccc(-c2cn3nc(N4CCC(C(=O)NCc5cccc(Cl)c5)CC4)sc3n2)cc1 18.7%
COC(=O)c1ccc(Nc2nc(-c3ccc(C)cc3)nc3ccccc23)cc1 21.1%
Cc1ccccc1Cn1cnc2c(oc3ccccc32)c1=O 1.47%
CC1=Nc2cc(C(=O)NC3CCC(C)CC3)ccc2Sc2c(C)ccc(C)c21 (configuration not stated) -4.87%
CCN(CC)C(=O)Cn1ncc2c([nH]c3ccc(C)cc32)c1=O 2.64%
COc1ccc(NC(=O)c2ccc3c(c2)N(Cc2cccc(Cl)c2)C(=O)c2ccccc2S3(=O)=O)cc1Cl -10.3%
Cc1ccc(-n2nc(C(=O)NCc3ccc(F)cc3Cl)c3c4ccccc4n(C)c3c2=O)cc1 -14.3%
FC(F)(F)c1ccc2c(c1)ncc1c(-c3ccccc3)nn(-c3ccccc3)c12 1.65%
CCOC(=O)c1c(NC(=O)CSc2cn(CCNC(=O)c3ccc(OC)c(OC)c3)c3ccccc23)sc2c1CCC2 -31%
Cc1cc(C)n2nc(-c3ccc(Cl)cc3)nc2n1 56.6%
Cc1cccc(N2CCN(c3nc4ccc(C(=O)c5ccccc5)cc4n4cnnc34)CC2C)c1 (configuration not stated) -2.77%
COc1ccc(OC)c(NC(=O)c2oc3c(c2C)-c2nn(Cc4ccc(Cl)cc4)cc2CC3)c1 -0.725%
Cc1ccc2c(CC(=O)N3CCN(c4cccc(Cl)c4)CC3)coc2c1C -12.7%
CC(=O)Nc1ccc(NC(=O)Cn2cc3c(n2)CCCCC3)cc1 0.772%
Cc1cccc(OCCSc2nc3ccc(NC(=O)COc4ccccc4C)cc3s2)c1 -8.12%
CC(C)C(=O)Nc1cccc(C(=O)Nc2nnc(C(F)(F)F)s2)c1 5.37%
Cc1ccc(NC(=O)CN(c2ccc(C)cc2)S(=O)(=O)c2cccc3nonc23)cc1 -12.2%
CCOCCCn1c(=N)c(C(=O)NCc2ccccc2)cc2c(=O)n3ccccc3nc21 6.01%
COc1cccc(NC(=O)Cn2c(=O)n(CCc3cccc(C)c3)c(=O)c3ccccc32)c1 -3.78%
Cc1cccc(NC(=O)c2c(NC(=O)c3ccco3)sc3c2CCC(C)C3)c1 (configuration not stated) 9.69%
COc1cccc(CNC(=O)c2ccc3c(c2)nc2n3CCC(C)C2)c1 (configuration not stated) 44.7%
COc1ccc(-n2nc(-c3ccc(C)cc3)c3cnc4cc(F)c(F)cc4c32)cc1 -13.8%
Cc1ccc(NC(=O)Cn2nc(-c3ccccc3)nc(Cc3ccccc3)c2=O)cc1 -6.92%
CCCN(CCC)C(=O)c1nn(C)c2c1CSc1ccccc1-2 -11.8%
Cc1ccccc1C(=O)Nc1ccccc1-c1nc(-c2ccccc2)no1 18.1%
Cc1nc(-c2cccc(F)c2)sc1CCNC(=O)C(=O)Nc1ccc2c(c1)OCCO2 -39.1%
CCc1nc2nc(C)c(NS(=O)(=O)c3ccc(F)c(C)c3)c(=O)n2[nH]1 -17.7%
CCOc1ccc2nc(N3CCCC(C(=O)NCCc4ccc(C)cc4)C3)sc2c1 (configuration not stated) 68.1%
CC(C(=O)Nc1ccccc1)n1nnc2sc3c(c2c1=O)CCCC3 (configuration not stated) -16.7%
Cc1cccc(Cn2c(=O)n(Cc3ccccc3)c(=O)c3sc4ccccc4c32)c1 -12.8%
CCCCn1c(CNC(=O)C23CC4CC(CC(C4)C2)C3)nnc1SCC(=O)Nc1ccc(F)cc1 -31.4%
Cc1cccc(NC(=O)Nc2nnc(N3CCCC3)s2)c1 14.2%
Cc1cc(C(=O)NCc2ccccc2)c2c(C)nn(-c3cccc(Cl)c3C)c2n1 -9.02%
Cc1ccc(NC(=O)C2CCCN2S(=O)(=O)c2ccc3nc(-c4ccccc4)[nH]c3c2)cc1C (configuration not stated) -20.9%
O=C(NCCS(=O)(=O)N1CCN(c2ccccc2F)CC1)C1CC(=O)N(c2ccc(F)cc2)C1 (configuration not stated) -28.5%
CCc1ccccc1N(CC)C(=O)Cn1nc(Cc2ccncc2)c2ccccc2c1=O -27.7%
Cc1ccc(OCC(=O)Nc2cccc3ccc(C)nc23)c(C)c1 -0.976%
Cc1cccc(NC(=O)COc2ccc3oc4c(c3c2)CCCC4)c1 -9.33%
COc1ccc(CNC(=O)C(=O)NCC(c2cccs2)S(=O)(=O)c2cccs2)cc1 (configuration not stated) -32.6%
O=C(CCc1nc(-c2cccs2)no1)Nc1ccc([N+](=O)[O-])cc1 -22%
O=C(NCc1ccccc1Cl)c1ccc(-n2cnc3cccnc32)cc1 -7.28%
Cn1c(/C(C#N)=C/c2ccc(C(F)(F)F)cc2)nc2ccccc21 47.3%
CCOc1ccccc1NC(=O)Cn1nc(N2CCN(c3ccccc3)CC2)ccc1=O -19.3%
Cc1ccc(CNC(=O)CSCc2nc(-c3cccc(C)c3)oc2C)cc1 -25.2%
Cc1cn2c(=O)c(S(=O)(=O)NCc3ccc(F)cc3)c(C)nc2s1 -1.58%
CCC(NC(=O)Nc1cccc(C)c1)c1c(-n2cccc2)sc2c1CCN(C)C2 (configuration not stated) -21.3%
O=C(CCC1N=C2c3ccccc3N=C(SCC(=O)NCCc3ccccc3)N2C1=O)NCc1ccc(F)cc1 (configuration not stated) -20.2%
CCCN(CCC)C(=O)Cn1c(=O)n(-c2ccc(Cl)c(Cl)c2)c(=O)c2c(C)c(C(=O)N(C)C)sc21 -5.38%
CCOc1ccc(OCC)c(NC(=O)C2CCCN(S(=O)(=O)c3ccc(C)cc3)C2)c1 (configuration not stated) -14.3%
CCOc1ccc(-c2nnc(SCC(=O)N(CC)c3cccc(C)c3)o2)cc1 -15%
O=C(Cn1c(=O)n(-c2ccccc2Cl)c(=O)c2sc3ccccc3c21)NC1CCCC1 -18.4%
Cc1ccn2c(Nc3ccc4c(c3)OCCO4)c(-c3ccc(N(C)C)cc3)nc2c1 57.9%
O=C(O)CCC(=O)c1ccc(-c2ccccc2)cc1 4.9%
COc1ccccc1CNC(=O)CSc1cc(C)[nH]c(=O)n1 -4.69%
COc1ccc(-c2c(C)nn3c(N4CCN(c5cc(Cl)ccc5C)CC4)cc(C)nc23)cc1OC -1.16%
COCCCNC(=O)C1CCN(c2nc3ccc(Cl)cc3[nH]2)CC1 13.6%
CC1=C(c2ccc(C(C)C)cc2)S(=O)(=O)NC1=NCc1ccc(Cl)cc1 -24.6%
CCOC(=O)c1ccccc1NC(=O)c1nn(-c2ccc(OC)c(Cl)c2)c(=O)c2c1c1ccccc1n2C -1.54%
Cc1ccc(CNC(=O)CCCc2nnc3n(CC(C)C)c(=O)c4sccc4n23)cc1 -4.3%
CCc1ccc2occ(CC(=O)Nc3ccc(C)c(C)c3)c2c1 -20.2%
Cc1sc2ncn(CC(=O)N3CCN(c4ccccc4)CC3)c(=O)c2c1S(=O)(=O)N1CCC(C)CC1 -32%
O=c1c2nncn2ccn1-c1ccc(F)c(F)c1 -7.29%
O=C(c1cc2cc3ccc(Cl)cc3nc2o1)N1CCN(c2cccc(Cl)c2)CC1 5.11%
O=C(CN1C(=O)CSc2ccc(S(=O)(=O)N3CCCC3)cc21)NCc1ccc(F)cc1Cl -9.18%
Cc1cccc(NC(=O)N2CC=C(c3c[nH]c4ccccc34)CC2)c1C -23.9%
CCc1cccc(C)c1NC(=O)Cn1ncc2c3ccccc3n(Cc3ccccc3)c2c1=O 11%
COc1ccc(-c2cn3nc(SCC(=O)Nc4cc(C)cc(C)c4)ccc3n2)cc1 35.8%
Cc1ccc(Cl)cc1Nc1nn2c(=O)c3ccc(C(=O)NC4CCCCC4)cc3nc2s1 -4.21%
CCCSc1ncnc2c1c(-c1ccccc1)cn2-c1ccccc1OC -12.3%
COc1ccc(OC)c(NC(=O)CS(=O)(=O)Cc2nc(-c3ccc(C)cc3)oc2C)c1 -17.9%
CN1CCN2c3ccccc3Cc3ccccc3C2C1 (configuration not stated)
CCOc1ccc2c(c1)c(=O)c(S(=O)(=O)c1ccc(CC)cc1)cn2Cc1cccc(Cl)c1 -12.9%
CCCCOC(=O)c1ccc(Nc2nc3ccc(C(=O)c4ccccc4)cc3n3cnnc23)cc1 0.151%
CCOc1ccc(OCC)c(NC(=O)c2cc(-c3cccs3)nc3ccccc23)c1 3.19%
O=c1c2sccc2n(Cc2cc(=O)n3cc(Cl)ccc3n2)c(=O)n1-c1ccccc1 -10.4%
O=c1c(N2CCN(c3cccc(Cl)c3)CC2)csc2ccc(Cl)cc12 17.2%
CCC(C)NC(=O)c1cn(CC)c2ccc(S(=O)(=O)N3CCc4ccccc4C3)cc2c1=O (configuration not stated) -25.1%
Cc1ccc(CCNC(=O)c2ccc3c(c2)N(Cc2ccc(F)cc2)CCS3)cc1 -16.5%
Cc1cc(C)c(NC(=O)Cn2c(=O)n(CC(=O)NCCc3ccccc3)c(=O)c3ccccc32)c(C)c1 -4.68%
O=C(NC1CCCCCC1)c1ccc(CS(=O)c2cccc(Cl)c2)o1 (configuration not stated) -20.6%
CCCCc1ncc(/C=C(\Cc2cccs2)C(=O)O)n1Cc1ccc(C(=O)O)cc1 0%
